Experimental data reported in the supplement of paper PMC8728848.
Some of the results follow.

What was measured:
Experiment in all cases: glycan array binding signal (z-score within array); higher = stronger binding
Settings in all cases: glycan notation: IUPAC condensed, linker removed
Gal3S4S(b1-4)GlcNAc = target: Gal3S4S(b1-4)GlcNAc
In short: (§1)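 The binding signal is a Z-score computed within each array. Data were drawn from 3228 arrays in the Consortium for Functional Glycomics database, restricted to those with a known protein sequence. Scores were averaged over arrays of the same protein sequence at different concentrations or buffers, and over linkers, and negative values can be taken as non-binding.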

Gal3S6S(b1-4)GlcNAc = target: Gal3S6S(b1-4)GlcNAc
In short: as §1

Gal3S6S(b1-4)GlcNAc6S = target: Gal3S6S(b1-4)GlcNAc6S
In short: as §1

Gal4S(b1-4)GlcNAc = target: Gal4S(b1-4)GlcNAc
In short: as §1

Gal4S6S(b1-4)GlcNAc = target: Gal4S6S(b1-4)GlcNAc
In short: as §1

Gal6P(b1-4)GlcNAc = target: Gal6P(b1-4)GlcNAc
In short: as §1

Gal6S(b1-3)GlcNAc = target: Gal6S(b1-3)GlcNAc
In short: as §1

Gal6S(b1-3)GlcNAc6S = target: Gal6S(b1-3)GlcNAc6S
In short: as §1

Gal6S(b1-4)Glc = target: Gal6S(b1-4)Glc
In short: as §1

Gal6S(b1-4)Glc6S = target: Gal6S(b1-4)Glc6S
In short: as §1

Gal6S(b1-4)GlcNAc = target: Gal6S(b1-4)GlcNAc
In short: as §1

Gal6S(b1-4)GlcNAc6S = target: Gal6S(b1-4)GlcNAc6S
In short: as §1

GalNAc(a1-3)Gal = target: GalNAc(a1-3)Gal
In short: as §1

GalNAc(a1-3)GalNAc = target: GalNAc(a1-3)GalNAc
In short: as §1

[1] = target: GalNAc(a1-3)GalNAc(b1-3)Gal(a1-4)Gal(b1-4)Glc
In short: as §1

[2] = target: GalNAc(a1-3)GalNAc(b1-3)Gal(a1-4)Gal(b1-4)GlcNAc
In short: as §1

GalNAc(b1-3)Gal = target: GalNAc(b1-3)Gal
In short: as §1

[3] = target: GalNAc(b1-3)Gal(a1-4)Gal(b1-4)GlcNAc
In short: as §1

[4] = target: GalNAc(b1-3)Gal(a1-4)Gal(b1-4)GlcNAc(b1-3)Gal(b1-4)Glc
In short: as §1

[5] = target: GalNAc(b1-3)Gal(a1-6)Gal(b1-4)Glc
In short: as §1

GalNAc(b1-3)GalNAc = target: GalNAc(b1-3)GalNAc
In short: as §1

GalNAc(b1-3)GlcNAc = target: GalNAc(b1-3)GlcNAc
In short: as §1

GalNAc(b1-4)Gal(b1-4)Glc = target: GalNAc(b1-4)Gal(b1-4)Glc
In short: as §1

GalNAc(b1-4)GlcNAc = target: GalNAc(b1-4)GlcNAc
In short: as §1

[6] = target: GalNAc(b1-4)GlcNAc(b1-2)Man
In short: as §1

[7] = target: GalNAc(b1-4)GlcNAc(b1-2)Man(a1-3)[GalNAc(b1-4)GlcNAc(b1-2)Man(a1-6)]Man(b1-4)GlcNAc(b1-4)GlcNAc
In short: as §1

[8] = target: GalNAc(b1-4)GlcNAc(b1-3)GalNAc(b1-4)GlcNAc
In short: as §1

GalNAc(b1-4)GlcNAc6S = target: GalNAc(b1-4)GlcNAc6S
In short: as §1

GalNAc(b1-6)GalNAc = target: GalNAc(b1-6)GalNAc
In short: as §1

GalNAc3S(b1-4)GlcNAc = target: GalNAc3S(b1-4)GlcNAc
In short: as §1

GalNAc3S(b1-4)GlcNAc3S = target: GalNAc3S(b1-4)GlcNAc3S
In short: as §1

[9] = target: GalNAc3S(b1-4)[Fuc(a1-3)]GlcNAc
In short: as §1

GalNAc4S6S(b1-4)GlcNAc = target: GalNAc4S6S(b1-4)GlcNAc
In short: as §1

GalNAc6S(b1-4)GlcNAc = target: GalNAc6S(b1-4)GlcNAc
In short: as §1

Glc(a1-4)Glc = target: Glc(a1-4)Glc
In short: as §1

[10] = target: Glc(a1-4)Glc(a1-4)Glc(a1-4)Glc
In short: as §1

Glc(a1-6)Glc(a1-6)Glc = target: Glc(a1-6)Glc(a1-6)Glc
In short: as §1

[11] = target: Glc(a1-6)Glc(a1-6)Glc(a1-6)Glc
In short: as §1

B1: Als3-41 (Candida albicans) (protein)
chain: KTITGVFNSFNSLTWSNAATYNYKGPGTPTWNAVLGWSLDGTSASPGDTFTLNMPCVFKFTTSQTSVDLTAHGVKYATCQFQAGEEFMTFSTLTCTVSNTLTPSIKALGTVTLPLAFNVGGTGSSVDLEDSKCFTAGTNTVTFNDGGKKISINVDFERSNVDPKGYLTDSRVIPSLNKVSTLFVAPQCANGYTSGTMGFANTYGDVQIDCSNIHVGITKGLNDWNYPVSSESFSYTKTCSSNGIFITYKNVPAGYRPFVDAYISATDVNSYTLSYANEYTCAGGYWQRAPFTLRWTGYRNSDAGSNGIVIVATTRTVTDSTTAVTTLPFDPNRDKTKTIEILKPIPTTTITTSYVGVTTSYLTKTAPIGETATVIVD
Gal3S4S(b1-4)GlcNAc
  glycan array binding signal (z-score): 0.028
Gal3S6S(b1-4)GlcNAc
  glycan array binding signal (z-score): -0.266
Gal3S6S(b1-4)GlcNAc6S
  glycan array binding signal (z-score): 0.032
Gal4S(b1-4)GlcNAc
  glycan array binding signal (z-score): -0.256
Gal4S6S(b1-4)GlcNAc
  glycan array binding signal (z-score): -0.211
Gal6P(b1-4)GlcNAc
  glycan array binding signal (z-score): -0.262
Gal6S(b1-3)GlcNAc
  glycan array binding signal (z-score): 0.164
Gal6S(b1-3)GlcNAc6S
  glycan array binding signal (z-score): -0.02
Gal6S(b1-4)Glc
  glycan array binding signal (z-score): -0.239
Gal6S(b1-4)Glc6S
  glycan array binding signal (z-score): 0.012
Gal6S(b1-4)GlcNAc
  glycan array binding signal (z-score): -0.24
Gal6S(b1-4)GlcNAc6S
  glycan array binding signal (z-score): 0.056
GalNAc(a1-3)Gal
  glycan array binding signal (z-score): 0.029
GalNAc(a1-3)GalNAc
  glycan array binding signal (z-score): -0.204
[1]
  glycan array binding signal (z-score): -0.24
[2]
  glycan array binding signal (z-score): -0.316
GalNAc(b1-3)Gal
  glycan array binding signal (z-score): 0.11
[3]
  glycan array binding signal (z-score): 0.222
[4]
  glycan array binding signal (z-score): -0.243
[5]
  glycan array binding signal (z-score): -0.157
GalNAc(b1-3)GalNAc
  glycan array binding signal (z-score): -0.345
GalNAc(b1-3)GlcNAc
  glycan array binding signal (z-score): 0.038
GalNAc(b1-4)Gal(b1-4)Glc
  glycan array binding signal (z-score): -0.103
GalNAc(b1-4)GlcNAc
  glycan array binding signal (z-score): 0.551
[6]
  glycan array binding signal (z-score): 0.183
[7]
  glycan array binding signal (z-score): -0.16
[8]
  glycan array binding signal (z-score): 1.43
GalNAc(b1-4)GlcNAc6S
  glycan array binding signal (z-score): 1.79
GalNAc(b1-6)GalNAc
  glycan array binding signal (z-score): -0.119
GalNAc3S(b1-4)GlcNAc
  glycan array binding signal (z-score): 0.076
GalNAc3S(b1-4)GlcNAc3S
  glycan array binding signal (z-score): -0.178
[9]
  glycan array binding signal (z-score): -0.27
GalNAc4S6S(b1-4)GlcNAc
  glycan array binding signal (z-score): -0.299
GalNAc6S(b1-4)GlcNAc
  glycan array binding signal (z-score): 0.078
Glc(a1-4)Glc
  glycan array binding signal (z-score): -0.195
[10]
  glycan array binding signal (z-score): 0.066
Glc(a1-6)Glc(a1-6)Glc
  glycan array binding signal (z-score): -0.177
[11]
  glycan array binding signal (z-score): -0.092
